# Assay results: PubChem BioAssay AID651820 (National Center for Advancing Translational Sciences (NCATS), 2012)
# The campaign covered roughly 340,000 compounds. About 12,000 (3.5%) were called active. This list was built around the results that the source calls inconclusive (neither active nor inactive); the mix of calls is not that of the screen. The call rests on the fitted dose curve; in most records, active means well fitted inhibition curve with a large enough effect; inconclusive means small, poorly fitted or top-dose-only effect, or another doubt; inactive means no such curve, though single readings can be large or run the other way. Potencies of inconclusive entries are left out as doubtful fits.
# Experiment: qHTS Assay for Inhibitors of Hepatitis C Virus (HCV)
# Settings: Huh7.5.1 HCVcc-Cre (HCVcc is cell-culture hepatitis C virus) infection, luciferase reporter, 44 h; series mostly up to 41.8 µM
# Method in brief: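 After 44 h co-culture of compound, cells and HCVcc-Cre (~0.5 moi), substrate is added for 15 min at room temperature and luciferase measured over 15 sec. Cells were seeded at 1,000/well and pre-cultured 4 h.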
# Potency means the concentration at half of the fitted maximal effect; tags describe the fitted curve by direction and shape.
row,Compound,Potency
1,S=C(NCCCN1CCOCC1)N1CCN(c2nc(-c3ccc(Cl)cc3)cs2)CC1,active: 3.16 µM
2,CCCc1ccc(-c2ccc(-c3noc(-c4ccncc4)n3)cc2)nc1,"inconclusive [inhibitor, partial curve]"
3,COc1cc(OC)cc(C(=O)NCCNc2nc3cc(C)cc(C)c3cc2C#N)c1,"inconclusive [inhibitor, full curve]"
4,COc1ccc2oc(=Nc3ccccc3)c(-c3nc4ccccc4[nH]3)cc2c1,inactive
5,O=C(Nc1ccc(NC(=O)C23CC4CC(CC(C4)C2)C3)cn1)c1ccco1,inactive
6,O=C(Nc1ccccc1N1CCCCC1)C1=COCCO1,"inconclusive [inhibitor, partial curve]"
7,CCc1ccc(NC(=O)c2ccc(OC)c([N+](=O)[O-])c2)cc1,"inconclusive [inhibitor, partial curve]"
8,O=C(Nc1nc(-c2ccc(Oc3ccccc3)cc2)cs1)C1=COCCO1,"inconclusive [inhibitor, single point]"
9,COc1ccc(C2=CCN3CCCCC3C2)c(-c2ccc(OC)c(OC)c2)c1 (configuration not stated),"inconclusive [inhibitor, partial curve, poor fit]"
10,CC(C)(C)c1cc(CSC(=S)NC2CCS(=O)(=O)C2)c(Br)c(C(C)(C)C)c1 (configuration not stated),inactive
11,Cc1ccc(-c2noc(C3CCCN(C(=O)c4ccccc4)C3)n2)o1 (configuration not stated),inactive
12,CN(CC(=O)Nc1ccc(F)c(F)c1F)C(=O)c1ccc2c(c1)OCCO2,"inconclusive [inhibitor, single point]"
13,O=C(c1ccc2c(c1)OCO2)N1CCCC1,"inconclusive [inhibitor, single point]"
14,OC(COC(c1ccc(F)cc1)c1ccc(F)cc1)CN1CCc2ccccc2C1 (configuration not stated),"inconclusive [inhibitor, single point]"
15,COc1ccc(NC(=O)c2cc([N+](=O)[O-])ccc2NC(=O)CNCc2ccccn2)c(OC)c1,"inconclusive [inhibitor, partial curve]"
16,CCN(Cc1ccccc1)C(c1ccc(C)cc1)c1nnnn1C(C)(C)CC (configuration not stated),active: 10 µM
17,COC(=O)C1=C(c2ccccc2OCc2ccccc2)C[C@@H]2CC[C@H]1N2C(=O)NCCN1CCOCC1,inactive
18,O=C(NCCN1CCOCC1)c1ccc(-c2ccccc2)cc1,"inconclusive [inhibitor, full curve]"
19,CC1CCN(c2ccc3c(c2)S(=O)(=O)c2ccccc2C3=O)CC1,"inconclusive [inhibitor, single point]"
20,O=C(Nc1ccccc1)NC1CCCc2ccccc21 (configuration not stated),inactive
21,COc1ccc(-c2nc3ccccc3n2Cc2ccccc2)cc1,inactive
22,CSc1ccc(CNC(=O)C2Cc3cc(S(=O)(=O)N4CCCCC4)ccc3N2C(C)=O)cc1 (configuration not stated),"inconclusive [inhibitor, single point]"
23,C=CCn1c(-c2ccc(C)cc2)nc2ccccc21,"inconclusive [inhibitor, single point]"

row,Compound,Potency
1,CCC1=NN(C(=O)c2ccc(C)cc2)C(O)(c2ccc(Br)cc2)C1 (configuration not stated),inactive
2,CC(NC(=O)c1cc(-c2ccccn2)nc2ccc(Cl)cc12)C1CCCO1 (configuration not stated),"inconclusive [inhibitor, partial curve, poor fit]"
3,COc1ccc(OC)c(N(C(=O)c2snc(C(N)=O)c2N)C(C(=O)NCc2ccccc2)c2ccc(O)cc2)c1 (configuration not stated),"inconclusive [inhibitor, single point]"
4,COc1cc2c(cc1OC)-c1cc3ccc(OC)c(OC)c3c[n+]1CC2,"inconclusive [inhibitor, partial curve]"
5,Cc1c(C=Nc2ccc(S(=O)(=O)N(C)C)cc2)c(O)[nH]c(=O)c1C#N,inactive
6,CCOC(=O)N1CCC(NC(=O)CS(=O)(=O)Cc2nc(-c3ccccc3Cl)oc2C)CC1,"inconclusive [inhibitor, partial curve]"
7,COc1ccc(NC(=O)c2cc(-c3cc(Cl)ccc3O)n[nH]2)c(OC)c1,"inconclusive [inhibitor, single point]"
8,O=C(Cc1cccc(NC(=O)C2CCN(C(=O)c3ccccc3)CC2)c1)Nc1cccc(C(=O)N2CCCC2)c1,"inconclusive [inhibitor, full curve]"
9,COc1cc(SC)ccc1C(=O)Nc1ccccn1,"inconclusive [inhibitor, single point]"
10,Cc1ccc(NC(=O)n2ncc3c(C)cccc32)c(C)c1,"inconclusive [inhibitor, single point]"
11,O=C(COc1ccccc1C(=O)Nc1ccccc1)NCCc1ccccc1,"inconclusive [inhibitor, full curve]"
12,NC(=O)c1ccc(N=Cc2ccc([N+](=O)[O-])s2)cc1,"inconclusive [inhibitor, single point]"
13,COC(=O)[C@H]1[C@H]2C[C@@H]3c4[nH]c5cc(OC)ccc5c4CCN3C[C@H]2C[C@@H](OC(=O)c2cc(OC)c(OC)c(OC)c2)[C@@H]1OC,"inconclusive [inhibitor, partial curve]"
14,Cc1c[n+](CC(=O)c2ccccc2)c(C)cn1,"inconclusive [inhibitor, single point]"
15,CCn1c(CCNC(=O)c2ccc(OC)cc2)nnc1SCc1ccc(Cl)c(Cl)c1,"inconclusive [inhibitor, single point]"
16,Cc1ccc(-c2noc(CCC(=O)NCCN3CCOCC3)n2)cc1,inactive
17,Cc1ccccc1OCC(=O)NCC(c1ccco1)N1CCCCC1 (configuration not stated),"inconclusive [inhibitor, single point]"
18,CCC(=O)c1ccc(OCc2ccccc2)c(OC)c1,"inconclusive [inhibitor, partial curve]"
19,OC(COCCOc1ccc(Br)cc1)CN1CCN(Cc2ccccc2)CC1 (configuration not stated),"inconclusive [inhibitor, single point]"
20,CC(=O)c1c(C)nn(-c2ccccc2)c1C,inactive
21,COc1cc(C(C)=O)ccc1OCC(O)CN1CCN(c2cc(C)cc(C)c2)CC1 (configuration not stated),active: 12.6 µM
22,COC(=O)C(CC(=O)c1ccc(Br)cc1)n1nc(C)cc1C (configuration not stated),inactive
23,COc1cc(C2Nc3ccc4ncccc4c3C3=C2C(=O)CCC3)ccc1O (configuration not stated),"inconclusive [inhibitor, full curve, poor fit]"

row,Compound,Potency
1,Cc1sc2ncn(CC(=O)NCCCC(=O)N3CCN(c4ccccn4)CC3)c(=O)c2c1C,"inconclusive [inhibitor, single point]"
2,CCOC(=O)c1cc(-c2ccccc2)sc1NC(=O)C(C)OC(=O)c1cccc(S(=O)(=O)N(C)C)c1 (configuration not stated),"inconclusive [inhibitor, single point]"
3,O=C(CN(C1CCCCC1)C1CCCCC1)N1CCc2ccccc2C1,"inconclusive [inhibitor, single point]"
4,CCc1nnc(NC(=O)CCC(=O)N2CCN(c3cc(Cl)ccc3C)CC2)s1,"inconclusive [inhibitor, single point]"
5,CCOC(=O)c1cc2sc(C)cc2n1CC(=O)NCCc1ccccc1,"inconclusive [inhibitor, partial curve, poor fit]"
6,Cc1ccc(NC(=O)N2CCc3ccccc32)cc1,"inconclusive [inhibitor, partial curve]"
7,COCCNC(=S)N/N=C(\C)c1cccc(OC)c1,"inconclusive [inhibitor, single point]"
8,COc1cc2c(cc1NC(=O)c1ccc(C(C)(C)C)cc1)CCCC2,"inconclusive [inhibitor, partial curve]"
9,Cc1ccc(CN(C)C(=O)c2ccccc2Sc2ccccc2C#N)cc1,"inconclusive [inhibitor, single point]"
10,CCC1(C)Cc2c(sc3nnn(CC(=O)Nc4cccc5ccccc45)c(=O)c23)CO1 (configuration not stated),"inconclusive [inhibitor, single point]"
11,CN1CCN(C2=Cc3ccccc3Sc3cc(F)c(Cl)cc32)CC1,active: 12.6 µM
12,CCCCNc1nc(-c2ccccc2)cc(C(F)(F)F)c1C(N)=O,"inconclusive [inhibitor, full curve]"
13,CCN(CC)S(=O)(=O)c1cccc(-n2c(O)c(C=Nc3ccccc3C(=O)O)c3ccccc3c2=O)c1,"inconclusive [inhibitor, partial curve, poor fit]"
14,Cc1ccc2[nH]c(O)c(N=O)c2c1,inactive
15,CCN(c1ccccc1)S(=O)(=O)c1ccc2ccccc2c1,active: 5.62 µM
16,CC(=O)/C(=N/Nc1ccc([N+](=O)[O-])cc1)N1CCCc2ccccc21,"inconclusive [inhibitor, single point]"
17,Cc1[nH]nc(SCC(=O)NCCc2ccccc2)c1[N+](=O)[O-],inactive
18,CCCCN(C(=O)c1ccc2c(c1)NC(=O)CS2)c1ccccc1,"inconclusive [inhibitor, single point]"
19,CCc1ccc(C(=O)c2oc3nc(C)cc(C)c3c2N)cc1,"inconclusive [inhibitor, partial curve, poor fit]"
20,COc1cc(C)ccc1OCC(=O)Nc1ccccc1N1CCOCC1,"inconclusive [inhibitor, single point]"
21,O=C(CSc1nc(=O)n(Cc2ccccn2)c2c1CCC2)Nc1ccc(F)cc1F,"inconclusive [inhibitor, partial curve]"
